Experimental data published in the supplement of paper PMC9446081.
Hit rate of the full screen: of about 39,000 compounds, about 220 (0.56%) showed activity. The list shows a part of the results.

Each compound was assayed on Escherichia coli K-12 BW25113 (assay: relative growth (OD600 normalised to plate interquartile mean) (fraction); higher = less growth inhibition, active = 0.2 or less). Details: 50 µM; LB; incubation time: overnight (16-24 h).
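Further: static incubation at 37 °C against the wild-type strain, values averaged over two biological replicates.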

| Compound | relative growth |
| --- | --- |
| CC(C)CC#Cc1ccc2c(c1)O[C@@H](CN(C)C(=O)Cc1cccnc1)[C@@H](C)CN([C@H](C)CO)S2(=O)=O | inactive: 1.01 |
| C[C@@H]1CN([C@H](C)CO)C(=O)Cc2cc(NC(=O)Cc3cn(C)c4ccccc34)ccc2O[C@@H]1CN(C)C | inactive: 0.993 |
| Nc1cc(=O)[nH]c(=O)n1-c1ccc(Cl)cc1 | inactive: 0.9 |
| C[C@H]1CCCCO[C@H](CN(C)C(=O)c2ccccc2)[C@@H](C)CN([C@@H](C)CO)C(=O)c2cc(NC(=O)Nc3ccc(C(F)(F)F)cc3)ccc2O1 | inactive: 1.02 |
| O=C(CN1CCOCC1)N[C@H]1CC[C@H](CCNC(=O)C2CCC2)O[C@@H]1CO | inactive: 0.947 |
| C[C@H]1CN([C@@H](C)CO)C(=O)c2cccc(NC(=O)C3CC3)c2O[C@@H]1CN(C)C(=O)NC1CCCCC1 | inactive: 1.03 |
| Cc1noc(C)c1NC(=O)Nc1ccc2c(c1)C(=O)N([C@H](C)CO)C[C@H](C)[C@@H](CN(C)CC1CCCCC1)OCCCC[C@H](C)O2 | inactive: 0.979 |
| CC(C)NC(=O)N(C)C[C@H]1Oc2ccc(NC(=O)c3ccncc3)cc2CC(=O)N([C@@H](C)CO)C[C@H]1C | inactive: 0.979 |
| O=C(O)/C=C(\CC(=O)O)C(=O)O | inactive: 0.979 |
| C[C@@H]1CN([C@H](C)CO)C(=O)c2cc(NC(=O)Cn3cnnn3)ccc2O[C@@H]1CN(C)Cc1ccc(Cl)c(Cl)c1 | inactive: 1.06 |
| C[C@H]1CCCCO[C@H](CN(C)Cc2ccc(C(F)(F)F)cc2)[C@@H](C)CN([C@@H](C)CO)C(=O)c2cc(NC(=O)Nc3cccc4ccccc34)ccc2O1 | inactive: 1.07 |
| C[C@@H]1CN([C@@H](C)CO)C(=O)c2cc(NC(=O)C3CCCCC3)ccc2O[C@@H](C)CCCCO[C@@H]1CN(C)S(=O)(=O)c1ccc(F)cc1 | inactive: 1 |
| C[C@H]1CN([C@@H](C)CO)C(=O)Cc2cc(NS(C)(=O)=O)ccc2O[C@H]1CN(C)Cc1ccc(C(=O)O)cc1 | inactive: 0.973 |
| Cc1cc(C(=O)Nc2cccc3c2O[C@H](CN(C)S(C)(=O)=O)[C@H](C)CN([C@@H](C)CO)C3=O)n(C)n1 | inactive: 0.997 |
| Cc1ccccc1S(=O)(=O)N1C[C@@H](O)COC[C@H]2O[C@@H](CC(=O)NCCc3ccccc3)CC[C@@H]21 | inactive: 1.04 |
| CC(C)NC(=O)Nc1ccc2c(c1)C(=O)N([C@H](C)CO)C[C@@H](C)[C@@H](CN(C)Cc1ccc(Cl)c(Cl)c1)OCCCC[C@H](C)O2 | inactive: 1.02 |
| Cc1noc(C)c1S(=O)(=O)Nc1cccc2c1O[C@H](CN(C)S(C)(=O)=O)[C@H](C)CN([C@@H](C)CO)C2=O | inactive: 0.991 |
| Cc1nnc(Nc2cccc([C@H]3CCCN(C(=O)CN)C3)n2)s1 | inactive: 1.02 |
| COC(=O)c1c2oc(c1C(=O)OC)C(=O)N[C@H](Cc1ccccc1)Cn1cc(nn1)[C@H](Cc1ccccc1)NC(=O)N[C@H](COC(=O)NCCCCCC(=O)NO)CC2 | inactive: 1.04 |
| C[C@@H]1CN([C@H](C)CO)C(=O)c2cc(NC(=O)c3ccccc3)ccc2O[C@@H](C)CCCCO[C@@H]1CN(C)CC1CCCCC1 | inactive: 0.981 |
| COCC#Cc1ccc2c(c1)O[C@H](CN(C)C(=O)Nc1ccc(OC)cc1)[C@@H](C)CN([C@H](C)CO)S2(=O)=O | inactive: 0.996 |

| Compound | relative growth |
| --- | --- |
| Cc1ccc(S(=O)(=O)Nc2ccc3c(c2)C(=O)N([C@@H](C)CO)C[C@H](C)[C@@H](CN(C)C(=O)Cc2ccccc2)OCCCC[C@@H](C)O3)cc1 | inactive: 1.01 |
| C[C@@H]1CN([C@@H](C)CO)C(=O)Cc2cc(NS(C)(=O)=O)ccc2O[C@H]1CN(C)S(=O)(=O)c1ccc(F)cc1 | inactive: 0.988 |
| CC(C)NC(=O)N(C)C[C@H]1Oc2c(NC(=O)C3CCOCC3)cccc2C(=O)N([C@@H](C)CO)C[C@@H]1C | inactive: 0.946 |
| O=C(N[C@@H]1CC[C@H](CCNS(=O)(=O)c2ccc(F)cc2)O[C@@H]1CO)C1CC1 | inactive: 0.991 |
| Cc1noc(C)c1S(=O)(=O)Nc1ccc2c(c1)CC(=O)N([C@H](C)CO)C[C@@H](C)[C@H](CN(C)Cc1ccc3c(c1)OCO3)O2 | inactive: 1 |
| CCCNC(=O)[C@@]1(Sc2ccc(C)cc2)CC(=O)N(Cc2ccccc2Cl)[C@@H]1c1ccc(CO)cc1I | inactive: 1.01 |
| C[C@H]1CN([C@@H](C)CO)C(=O)Cc2cc(NS(C)(=O)=O)ccc2O[C@@H]1CN(C)C(=O)Nc1ccc2c(c1)OCO2 | inactive: 1.01 |
| C[C@H](CO)N1C[C@H](C)[C@@H](CN(C)C(=O)Nc2ccc(C(F)(F)F)cc2)Oc2ccc(NC(=O)Cn3cnnn3)cc2C1=O | inactive: 0.955 |
| CS(=O)(=O)O.CSc1ccc2c(c1)C(N1CCN(C)CC1)Cc1ccccc1S2 (stereo unspecified) | inactive: 0.643 |
| O=C1CN(S(=O)(=O)Cc2ccccc2)C[C@@H]2[C@H](c3ccc(C#Cc4ccc(F)cc4)cc3)[C@H](CO)N12 | inactive: 1.04 |
| C[C@@H]1CN([C@@H](C)CO)C(=O)Cc2cc(NC(=O)Nc3ccc(C(F)(F)F)cc3)ccc2O[C@H]1CN(C)S(C)(=O)=O | inactive: 0.972 |
| C[C@@H]1CN([C@@H](C)CO)C(=O)c2cccc(NC(=O)Nc3ccc(C(F)(F)F)cc3)c2O[C@@H]1CN(C)Cc1ccc(-c2ccccc2)cc1 | inactive: 1.08 |
| Cc1noc(C)c1NC(=O)N(C)C[C@@H]1OCCCC[C@@H](C)Oc2ccc(NC(=O)NC3CCCCC3)cc2C(=O)N([C@H](C)CO)C[C@@H]1C | inactive: 0.938 |
| CC1(C)SC2C(NC(=O)C(C(=O)[O-])c3ccccc3)C(=O)N2C1C(=O)[O-].[Na+].[Na+] (stereo unspecified) | inactive: 1.1 |
| CC[N+](CC)(CC)CCOc1ccc(/C=C/c2ccccc2)cc1 | inactive: 1.01 |
| NCCCCCC(=O)O | inactive: 0.989 |
| C[C@H](CO)N1C[C@H](C)[C@H](CN(C)Cc2ccc(Cl)c(Cl)c2)Oc2ccc(NC(=O)Nc3cccc4ccccc34)cc2C1=O | inactive: 0.991 |
| COc1ccc(NC(=O)Nc2ccc3c(c2)C(=O)N([C@@H](C)CO)C[C@H](C)[C@H](CN(C)C(=O)C2CCCCC2)OCCCC[C@@H](C)O3)cc1 | inactive: 1 |
| O=C1N(Cc2ccccc2)c2ccccc2[C@@H]2OC(c3ccc(OCCCO)cc3)=N[C@]12CCS(=O)(=O)c1ccccc1 | inactive: 1.02 |
| C[C@H](CO)N1C[C@H](C)[C@@H](CN(C)Cc2ccc(C(F)(F)F)cc2)Oc2ccc(NC(=O)Nc3ccc(C(F)(F)F)cc3)cc2CC1=O | inactive: 1.08 |
| COc1ccc(CN(C)C[C@H]2OCCCC[C@H](C)Oc3ccc(NC(=O)NC4CCCCC4)cc3C(=O)N([C@H](C)CO)C[C@@H]2C)cc1 | inactive: 1.02 |

| Compound | relative growth |
| --- | --- |
| Cc1noc(C)c1NC(=O)Nc1ccc2c(c1)C(=O)N([C@@H](C)CO)C[C@@H](C)[C@H](CN(C)C(=O)Nc1ccccc1)OCCCC[C@@H](C)O2 | inactive: 1.01 |
| CN(C)CCCNC(=O)C[C@@H]1CC[C@@H]2[C@@H](COc3ccc(NC(=O)NC4CCCC4)cc3C(=O)N2C)O1 | inactive: 1.01 |
| CCS(=O)(=O)N1[C@@H](CO)[C@@H](c2ccccc2)C12CN(C(=O)CN(C)C)C2 | inactive: 1.02 |
| Cc1noc(C)c1S(=O)(=O)Nc1ccc2c(c1)CC(=O)N([C@H](C)CO)C[C@@H](C)[C@H](CN(C)S(C)(=O)=O)O2 | inactive: 0.994 |
| O=C(NCCCN1CCCC1=O)c1cccnc1 | inactive: 1.01 |
| C[C@@H]1CN([C@H](C)CO)C(=O)c2cccc(NC(=O)CCCCCC(=O)Nc3ccccc3N)c2O[C@H]1CN(C)C(=O)Nc1ccc(C(F)(F)F)cc1 | inactive: 0.954 |
| N[C@@H](C(=O)N[C@@H]1C(=O)N2C(C(=O)O)=C(Cl)CS[C@H]12)c1ccccc1 | active: 0.0303 |
| C[C@@H]1CN([C@@H](C)CO)S(=O)(=O)c2ccc(/C=C/c3ccccc3)cc2O[C@H]1CN(C)C(=O)Nc1cc(F)ccc1F | inactive: 1.04 |
| C[C@@H]1CN([C@H](C)CO)C(=O)c2cc(C#CCN(C)C)cnc2O[C@H]1CN(C)C(=O)c1cnccn1 | inactive: 0.977 |
| CC(C)CC#Cc1cnc2c(c1)C(=O)N([C@@H](C)CO)C[C@@H](C)[C@@H](CN(C)C(=O)CCN1CCCCC1)O2 | inactive: 0.965 |
| C[C@H]1CN([C@@H](C)CO)C(=O)c2cccc(NC(=O)c3ccc(-c4nccs4)cc3)c2O[C@@H]1CN(C)C(=O)Nc1ccc(F)cc1 | inactive: 0.981 |
| C[C@@H]1CN([C@@H](C)CO)C(=O)CCCn2cc(nn2)CO[C@H]1CN(C)Cc1ccc2c(c1)OCCN2C | inactive: 1.01 |
| C[C@H](CO)N1C[C@H](C)[C@H](CN(C)S(=O)(=O)c2cn(C)cn2)Oc2c(NC(=O)C3CCCCC3)cccc2C1=O | inactive: 1.02 |
| Cn1cc(N2C[C@]3(CCN(S(C)(=O)=O)C3)CC2=O)cn1 | inactive: 0.97 |
| Cc1ccc(S(=O)(=O)Nc2ccc3c(c2)C(=O)N([C@@H](C)CO)C[C@@H](C)[C@@H](CN(C)Cc2ccc(C(F)(F)F)cc2)OCCCC[C@H](C)O3)cc1 | inactive: 1 |
| Nc1nc(=O)c2ncn(CCC(CO)CO)c2[nH]1 | inactive: 1 |
| C[C@@H]1CCCCO[C@@H](CN(C)Cc2ccc3c(c2)OCO3)[C@@H](C)CN([C@H](C)CO)C(=O)c2cc(NS(=O)(=O)c3ccccc3)ccc2O1 | inactive: 1.01 |
| Cn1c2c(c(=O)n(C)c1=O)/N=N\c1c(c(=O)n(C)c(=O)n1C)/N=N\2 | inactive: 0.997 |
| C[C@@H]1CN([C@@H](C)CO)C(=O)c2cccc(NS(=O)(=O)c3ccc(Cl)cc3)c2O[C@H]1CN(C)S(=O)(=O)c1cn(C)cn1 | inactive: 0.989 |
